Experimental data from PubChem BioAssay AID1508624 (National Center for Advancing Translational Sciences (NCATS), 2021).
Out of some 48,000 compounds screened, about 120 (0.25%) were called active. Another 4% or so got no clear call; they are omitted. Calls follow the shape of the dose curve; as a rule, active = well fitted activation curve with a large enough effect; inconclusive = small, poorly fitted or top-dose-only effect, or another doubt; inactive = no such curve, though single readings can be large or run the other way. The list shows a part of the results.

Test: Primary qHTS for Identification of Small Molecule Activators of Huntingtin-Antisense Promoter Activity; also: nearly all actives have a fitted effect of over 55% in size
Settings: HEK293 HTT-AS promoter firefly luciferase reporter, 24 h; series mostly up to 57.5 µM; activity change, positive = activation: at the top concentration
Excerpt: Assay Provider: Russell L. Margolis M.D.
Department Neurology, Johns Hopkins University School of Medicine, Baltimore, MD
Huntington's Disease (HD) is a neurodegenerative disorder caused by a CAG repeat expansion in exon 1 of huntingtin (HTT). While there are currently no disease-modifying treatments for HD, recent efforts have focused on development of nucleotide-based therapeutics to lower HTT expression. As an alternative to siRNA or oligonucleotide methods, we hypothesized that suppression of HTT expression might be accomplished by small molecules that either (1) directly decrease HTT expression by suppressing HTT promoter activity or (2) indirectly decrease HTT expression by increasing the promoter activity of HTT-AS, the gene antisense to HTT that appears to inhibit expression of HTT.
We developed and employed a high throughput screen for modifiers of HTT and HTT-AS promoter activity using luminescent reporter HEK293 cells; of the 52,041 compounds tested, we identified 898 replicable hits. We used a rigorous stepwise approach to assess compound toxicity and the capacity of the compounds to specifically lower huntingtin protein in 5 different cell lines, including HEK293 cells, HD lymphoblastoid cells, mouse primary neurons, HD iPSCs differentiated into cortical-like neurons, and HD hESCs. We found no compounds which were able to lower huntingtin without lowering cell viability in all assays, though the potential efficacy of a few compounds at non-toxic doses could not be excluded.
SEQUENCE No. (1, 2, 3, etc.); […] (e.g., Cells, Incubation, Reagent, etc.); VALUE and DESCRIPTION.
1; Reagent; 4 uL; 2,500 Hek293 luciferase reporter cells per wells
3; Compound; 23 nL; Control inhibitor / compound library
5; Reagent; 2.5 uL; Firefly Luc reagent; Dual-Glo Luciferase Reporter Assay System (Promega)
6; Time; 10 min; room temperature incubation
7; Detection; Luminescence; FLuc
NOTES (numbers refer to sequence above)
1; High-throughput screening, measuring luminescence from a Hek293 luciferase reporter, was performed in 1,536 well white-walled tissue-culture treated plates. 2,500 cells were plated in 4 µL of Opti-MEM per well using a Multidrop Combi Reagent Dispenser (ThermoFisher).
2; Assay plates were cultured for 24 hours.
3; Control inhibitor (PTC124; final concentration of 50 uM) and compound library (at final concentrations of 460 nM - 57.5 uM) were added to the assay plate using the Kalypsis Pintool Robotic System equipped with 1536 pinheads.
4; Cells were then incubated for 24 hours at 37 degrees C prior to luminescence measurements.
5; In all cases, luminescence was measured using the Dual-Glo Luciferase Reporter Assay System (Promega) following the manufacturer's instructions.
6; Room temperature incubation.
7; Luminescence signal was obtained using the PerkinElmer ViewLux plate reader. Results were normalized to vehicle control (0% activity) and zero RLU (-100% activity).

Activity change, positive = activation, inactive:
c1ccc(C(O[C@H]2CCCN(CCc3ccc4c(c3)OCO4)C2)c2ccccc2)cc1 -4.65%
O=C(NCC(c1ccc2c(c1)OCO2)N1CCN(c2ccc(F)cc2)CC1)c1cccc([N+](=O)[O-])c1 (centres undefined) -39.5%
Cc1ccc2onc(CNC(=O)Nc3ccccc3C#N)c2c1 -13.6%
COc1cccc(CNC(=O)CCc2c(C)nc3c(c2C)c(=O)n(C)c(=O)n3C)c1 -0.496%
CCc1ccccc1NC(=O)CSc1ncccc1C(=O)O 8.97%
COc1ccc(Nc2ncnc3c2c(-c2ccccc2)cn3-c2ccc(C)c(Cl)c2)cc1OC 4.94%
Cc1nn(C)c2c1c(C(F)(F)F)cc(=O)n2C(C)C(=O)NCCc1ccc(Cl)cc1 (centres undefined) -21.7%
COCCOC(=O)c1c(C)oc2c1cc(NS(=O)(=O)c1ccc(Cl)c(C)c1)c1ccccc12 -30.7%
Cc1ccc(Oc2coc3cc(OCC(=O)NC4CCCCC4)ccc3c2=O)cc1 -6.16%
N#Cc1ccc(C(=O)Nc2ccccc2-c2nc3ccccc3s2)c(F)c1 -5.58%
COc1ccc(OCc2ccc(-c3nc(C#N)c(NCc4ccccc4)o3)o2)cc1 6.06%
CNS(=O)(=O)c1ccc(NC(=O)c2cnn3c(C(F)F)cc(-c4ccccc4)nc23)cc1 -9.93%
CCOC(=O)c1cnc2c(Cl)c(Cl)ccc2c1NCCN1CCOCC1 -8.67%
CCOC(=O)Cc1ccc(NC(=O)n2ncc3cc(Cl)ccc32)cc1 -91.3%
O=c1c(-c2ccc(O)cc2)coc2cc(O[C@@H]3O[C@H](CO)[C@H](O)[C@H](O)[C@H]3O)ccc12 20.2%
COc1cccc(CNC(=O)c2ccc3c(c2)N(C)C(=O)C2CCCCN32)c1 (centres undefined) -8.95%
COc1ccc(-c2nc(SCC(=O)Nc3ccc4c(c3)OCO4)c(-c3ccccc3)[nH]2)cc1 -35.7%
CCc1ccc(NC(=O)C2CCC(CNS(=O)(=O)c3cccs3)CC2)cc1 (centres undefined) -8.67%
Cc1ccccc1NC(=O)c1c(NC(=O)c2ccncc2)sc2c1CCC(C(C)(C)C)C2 (centres undefined) 11.3% [at 11.5 µM, percent change from vehicle, -100% = no light]
COc1ccccc1NC(=O)C1=C(C)Nc2nc(-c3ccco3)nn2C1c1ccccc1 (centres undefined) -14.1%
CC1CCN(c2cc3c(cc2F)c(=O)c(S(=O)(=O)c2ccc(Cl)cc2)cn3C)CC1 -13.3%
COc1ccc(Nc2nc3c(S(=O)(=O)c4ccc(Br)cc4)nnn3c3ccsc23)c(OC)c1 -10.4%
CCOC(=O)c1c(NC(=O)c2cc(-c3ccc(Cl)cc3)on2)sc2c1CCCC2 -8.21%
CNS(=O)(=O)c1cc(-c2nn3c(C)nnc3c3ccccc23)ccc1C 5.21%
Cc1ccc(CNc2oc(-c3ccc(COc4ccc(Cl)cc4)o3)nc2C#N)cc1 -51%
CCOc1ccc(-c2cc3nc(C4CCN(C(=O)OC(C)(C)C)CC4)c(C(=O)Nc4ccc(C)c(F)c4)cn3n2)cc1 -8.58%
CC(C)CCNC(=O)c1cn(C)c2ccc(S(=O)(=O)N3CCCC3)cc2c1=O 4.28%
Cc1ccccc1OCc1cc(=O)n2c(-c3ccccc3)csc2n1 -3.03%
CCn1cc(C(=O)N2CCN(c3cc(Cl)ccc3C)CC2)c(=O)c2cc(S(=O)(=O)N3CCOCC3)ccc21 -21.5%
CCC(=O)N1CCc2cc(Br)cc(S(=O)(=O)N3CCC(C(=O)N(CC)CC)CC3)c21 -4.9%
Cc1cccc(NC(=O)CSC2=Nc3ccccc3C3=NC(CCC(=O)NCc4ccc(F)cc4)C(=O)N23)c1 (centres undefined) -13.9%
O=C(NCCc1ccc(Cl)cc1)c1ccc(Cn2c(=O)[nH]c3ccccc3c2=O)cc1 -11.9%
CC(=O)c1cccc(Nc2ncnc3c2cnn3C)c1 -0.227%
CCOc1ccccc1NC(=O)Cc1csc(COc2cccc(C)c2)n1 -17.6%
Cc1ccc(-n2c3c(c(=O)[nH]c2=O)C(NS(=O)(=O)c2ccc(C)cc2)(C(F)(F)F)C(=O)N3)cc1 (centres undefined) -5.24%
CCOc1ccc(CN2C(=O)c3ccccc3Sc3ccc(C(=O)NCCc4ccccc4)cc32)cc1 -5.64%
COc1ccc2[nH]cc(CCNC(=O)Nc3cccc(F)c3)c2c1 -17.3%
CC1CCN(S(=O)(=O)c2ccc(C(=O)Nc3nc4ccc(F)cc4s3)cc2)CC1 -23.8%
COC(=O)c1c(NC(=O)COc2c(C)cccc2C)sc2c1CCCC2 -29.9%
CCOc1ccccc1NC(=O)c1cc2cc(C)ccc2n1C -18.2%
COc1ccccc1CNC(=O)C1CCCN(C(=O)c2cnn(-c3ccc(F)cc3)c2-n2cccc2)C1 (centres undefined) -11.9%
Cc1ccc(NC(=O)C(Cc2ccccc2)n2cccc2)cc1 (centres undefined) -9.86%
COCCCn1c(=O)c2sccc2n2c(CCCC(=O)Nc3cc(C)cc(C)c3)nnc12 -1.36%
COc1ccc(CNC(=O)Cn2ncc3c4ccccc4n(Cc4cccc(Cl)c4)c3c2=O)cc1 -11%
OCCN1CCN(CCCN2c3ccccc3Sc3ccc(C(F)(F)F)cc32)CC1
CC(C)(Oc1ccc(CCNC(=O)c2ccc(Cl)cc2)cc1)C(=O)O 2.36%
COc1ccc(OC)c(NCc2cccn2-c2nnc(N3CCCCC3)s2)c1 -34%
Cc1ccc(C)c(S(=O)(=O)c2cn(C)c3cc(N4CCCCC4C)c(F)cc3c2=O)c1 (centres undefined) -13.4%
COc1ccc(C)cc1NC(=O)c1ccc2c(=O)n3c(nc2c1)CCCCC3 -14.1%
c1ccc(CC2=NCCN2)cc1 32.6%
Cc1cccc(-c2nc3c4ccccc4nc(N4CCN(c5ccccc5F)CC4)n3n2)c1 -1.53%
Cc1ccc(CNC(=O)NCc2noc3ccc(C)cc23)cc1 -8.68%
COc1ccc(C(=O)NCCn2cc(SCC(=O)Nc3ccc(C)cc3)c3ccccc32)cc1 -27.7%
Cn1c(=O)c2c(-c3ccc(Cl)cc3)n(Cc3ccc(Cl)cc3)cc2n(C)c1=O -15.4%
CCC1CCCCN1CCCNC(=O)c1[nH]c2ccccc2c1Sc1ccc(Cl)cc1 (centres undefined) -8.5%
CCOc1ccc(C(c2c(O)cc(C)n(CCOC)c2=O)N2CCN(c3ccccc3)CC2)cc1 (centres undefined) -10.5%
COc1cccc(CNC(=O)C(CC(C)C)NS(=O)(=O)c2ccc3c(c2)oc(=O)n3C)c1 (centres undefined) -21.9%
Cc1c2cnn(CC(=O)N3CCCCC3)c(=O)c2c(C)n1Cc1ccc(F)cc1 0.191%
COc1ccc(-c2noc(N3CCC(C(=O)Nc4ccc(F)cc4Cl)CC3)n2)cc1 -85.8%
